# Measurements: the supplement of paper PMC3334620
# Over roughly 33,000 sequences, “E-score (-0.5 to 0.5)” has its median near -0.035; the highest 2% begin near 0.35. The list shows a part of the results.
# Molecular target: T1, Pdr3 (UniProt P33200)
# T1 sequence: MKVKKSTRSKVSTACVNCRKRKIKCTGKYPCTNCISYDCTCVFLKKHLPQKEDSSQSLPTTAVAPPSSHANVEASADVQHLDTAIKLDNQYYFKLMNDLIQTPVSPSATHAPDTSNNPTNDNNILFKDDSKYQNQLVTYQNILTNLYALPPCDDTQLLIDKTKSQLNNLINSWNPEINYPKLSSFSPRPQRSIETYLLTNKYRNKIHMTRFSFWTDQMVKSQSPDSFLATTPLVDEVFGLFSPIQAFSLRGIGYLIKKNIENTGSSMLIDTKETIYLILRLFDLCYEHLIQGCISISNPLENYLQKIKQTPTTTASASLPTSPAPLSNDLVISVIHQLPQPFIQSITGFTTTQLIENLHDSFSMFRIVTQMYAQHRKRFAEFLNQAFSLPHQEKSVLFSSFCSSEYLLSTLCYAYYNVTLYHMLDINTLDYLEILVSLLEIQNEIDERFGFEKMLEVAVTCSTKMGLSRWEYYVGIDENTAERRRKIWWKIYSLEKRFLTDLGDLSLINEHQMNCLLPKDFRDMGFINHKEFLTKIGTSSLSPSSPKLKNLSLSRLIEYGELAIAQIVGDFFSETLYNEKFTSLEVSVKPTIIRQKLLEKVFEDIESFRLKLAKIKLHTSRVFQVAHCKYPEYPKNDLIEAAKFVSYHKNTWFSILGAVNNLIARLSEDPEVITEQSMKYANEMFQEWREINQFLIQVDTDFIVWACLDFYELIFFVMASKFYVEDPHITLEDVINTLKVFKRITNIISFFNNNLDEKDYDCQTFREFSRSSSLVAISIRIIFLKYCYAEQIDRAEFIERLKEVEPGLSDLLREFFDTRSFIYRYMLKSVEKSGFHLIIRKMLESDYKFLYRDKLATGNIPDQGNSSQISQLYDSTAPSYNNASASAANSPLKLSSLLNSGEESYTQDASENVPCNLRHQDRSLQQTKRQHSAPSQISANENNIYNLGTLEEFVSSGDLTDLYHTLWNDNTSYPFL
# Assay: PBM E-score (8-mer binding enrichment) (E-score (-0.5 to 0.5)); higher = stronger / more preferred TF binding; most listed sequences are background and not binding sites
# Details: protein concentration: 200 nM; construct: GST-full length
# Method in brief: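 Masliner-normalised scans of fluorescent anti-GST signal were the basis for scoring. That signal came from GST-tagged yeast transcription factors applied at about 100-200 nM to double-stranded universal all-10-mer Agilent arrays on fresh or once-stripped slides. Each ungapped eight-base word, pooled with its reverse complement, received an E-score from the Universal PBM Analysis Suite.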
row,Sequence,PBM E-score
1,GAGGAGTA,-0.0674
2,GCAACGTA,-0.192
3,AGTGGCTG,0.118
4,AGGCCTGA,-0.0734
5,AGTCTATC,-0.172
6,CCCTTAAG,-0.0669
7,GGTGAACC,-0.0447
8,CTCGTGGC,0.00874
9,CCCCGATA,0.112
10,AACGGCCT,-0.015
11,CCTAAGTA,-0.0438
12,AGTTAGAA,0.137
13,CCGGTGTA,0.153
14,CTAAAAGA,-0.283
15,AATAACGC,-0.207
16,TATATTGA,0.131
17,ACAACATC,-0.0263
18,ATCCGATC,0.275
19,GCTTATCA,-0.0726
20,GATACGAC,-0.11
21,GGCTTCCC,-0.0254
22,AGGTCGAT,0.17
23,ACGTTCAT,-0.371
24,AAGAATCT,-0.0912
25,GACACCCA,-0.139

row,Sequence,PBM E-score
1,GGGCCAGA,-0.0964
2,ACTCTTAG,-0.224
3,GATCTCCA,0.0339
4,ATCCGCCA,0.185
5,GATATCGA,-0.0357
6,GAACCAAC,0.0294
7,CGCCGTTA,0.0777
8,GGTTCCCA,-0.0344
9,GGAATGAC,0.225
10,GTCACGAC,-0.118
11,ATAACCAC,-0.0238
12,CCCAACAG,-0.274
13,AAATCAGT,0.0365
14,ATTGGAGC,0.0566
15,CAAACGCC,0.135
16,CAGACGAC,-0.111
17,ACGTTAGA,-0.117
18,AAGTCACA,-0.176
19,GTGCCTTA,-0.179
20,AGTACCTC,-0.175
21,GTTTAACA,-0.238
22,GAACAGGA,-0.00932
23,ATGTCTAA,-0.15
24,AGTGATAC,-0.144
25,CCTCCACA,-0.167

row,Sequence,PBM E-score
1,CAAGTTGC,0.0412
2,CAGCGCCC,-0.0855
3,CTAATTGC,0.0796
4,GTCGGCAA,0.0307
5,CCTGTTGC,0.0205
6,GGGTCTCA,-0.00302
7,GGGATAAC,0.179
8,AATAGGCT,-0.0988
9,AAGACCCG,0.107
10,CAAATGCC,-0.0704
11,CCGAGCGA,0.253
12,GAACTCCC,0.132
13,GGGCCTCA,0.032
14,GGAGCTTA,-0.0551
15,ACTTTATC,-0.0416
16,AGCTGCAA,-0.0617
17,ACCGACTA,-0.102
18,CGATTTGA,-0.0826
19,GACCCCGA,0.109
20,GGGTGGAC,0.168
21,ACTCCTCC,0.0576
22,TCGAAAAA,0.027
23,AGGCATGA,-0.223
24,AAACCGTC,0.135
25,ACGTAAAC,-0.198

row,Sequence,PBM E-score
1,TACTTCGA,0.104
2,AATGCTAT,-0.0693
3,GGGCTAGA,-0.105
4,GGTTCCAA,0.273
5,ACAACTAG,0.0926
6,AACAGCGC,-0.0939
7,AAGCCTCA,-0.045
8,TCTCCTAA,-0.167
9,GCACGGTA,-0.063
10,CTGACTCC,-0.147
11,CTCTTAAC,-0.0652
12,ACGAGAAC,-0.0935
13,ACATTTAA,0.0567
14,ATGTACGC,-0.207
15,GCCCGCAC,0.164
16,ACGATATG,0.12
17,TACTATAA,0.0062
18,CAGCAACC,-0.074
19,AACGATGA,-0.0263
20,GTTTACGA,-0.17
21,ACCCATAT,-0.00112
22,ACTCGGAG,0.201
23,CCGCTCCG,0.378
24,CAGGCGCG,0.0315
25,CGAGAGCG,0.0432

row,Sequence,PBM E-score
1,TATCAAGA,-0.113
2,AACGCTTG,-0.17
3,ACCTGATC,-0.152
4,TGTATAAA,-0.0964
5,AAACCCTC,-0.0885
6,ACAGAACC,-0.208
7,CCTCCGAA,0.152
8,GAACAGGC,0.0536
9,AATAGCGA,-0.0102
10,AAACCACT,-0.088
11,GCCCGGAC,0.282
12,CTGATTGA,-0.125
13,ACTCGCTA,0.0214
14,AATACCTG,-0.0442
15,AATAGGTC,-0.0646
16,ACCGATTA,0.223
17,ATTCCCAC,-0.0385
18,AATGAGGC,-0.0677
19,GCAATCAC,-0.00582
20,TAGGCAAA,-0.226
21,AAAGGCGG,0.0756
22,GCACTTCC,-0.0637
23,ACCCACCT,-0.21
24,AGTCGAAT,0.0199
25,AACCGTTC,0.258

row,Sequence,PBM E-score
1,AGGTGGGC,-0.0925
2,CCTGTCAC,-0.11
3,TATAACAA,0.0804
4,ATTTCGTC,0.0296
5,CCCGAGGG,0.211
6,GTGAAGTA,-0.0346
7,AATGAGAA,-0.165
8,CCTGTACC,-0.224
9,CCGACAAC,0.044
10,CGTCACAG,0.0195
11,ACGCACAC,0.05
12,AGTGTGAT,-0.0147
13,ATAAGCGA,0.0101
14,ATTGCACA,0.00491
15,CGCACGAC,-0.115
16,CGGGGAGC,0.212
17,GAGAAGTA,-0.0889
18,CTCCCAGA,-0.309
19,GCCATGGC,-0.142
20,ACAGAAGC,-0.0348
21,AGCACCCA,-0.223
22,ATACGAAC,0.105
23,GAGGGGGA,-0.248
24,AGTTCCTA,0.0135
25,ATCATGTG,-0.122

row,Sequence,PBM E-score
1,AACTTAGT,0.0208
2,ATAATGCG,0.0962
3,GGCTCCCC,-0.0502
4,CGGGATAC,0.342
5,ACTGATCG,-0.21
6,GCCTGGGA,0.0624
7,AAACTACA,0.0828
8,ACGGCAGA,0.258
9,CATCGAAC,0.0312
10,ACTGTGTG,0.00651
11,AACCTAGT,-0.0312
12,ATTTTTAC,-0.193
13,CGTCTATA,-0.0571
14,ACAGTAGT,-0.0966
15,GCGTAGAA,-0.136
16,CACGACCC,0.00094
17,CCGTCAGA,0.0984
18,CCGCCGGC,0.401
19,CTTTCCCC,0.117
20,ACTGAAAC,0.0653
21,ACACAAAA,0.0544
22,ATGTTGTA,-0.0741
